From PubChem BioAssay AID2147 (National Center for Advancing Translational Sciences (NCATS), 2009)
Hit rate of the full screen: of about 230,000 compounds, about 3,600 (1.6%) were called active. The inconclusive results got no clear call from the source; some entries with a clear call stand among them for comparison. Calls come from the whole dose curve; as a rule, active = well fitted inhibition curve with a large enough effect (not every such curve was filed as active); inconclusive = small, poorly fitted or top-dose-only effect, or another doubt; inactive = no such curve, though single readings can be large or run the other way. A potency beside an inconclusive call is a rough fit, not a confirmed value.

These compounds were tested against Lysine-specific demethylase 4E (Homo sapiens) (UniProt B2RXH2) (assay: qHTS Assay for Inhibitors of Human Jumonji Domain Containing 2E (JMJD2E)). Settings: JMJD2E catalytic domain, FDH-coupled NADH fluorescence (FDH is formaldehyde dehydrogenase); series mostly up to 57.1 µM; activity change, negative = inhibition: at the top concentration.
Note: nearly all actives have a fitted effect of over 50% in size.
Potency is the fitted concentration of half-maximal effect; tags give direction and shape of the fitted curve.
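Throughout, for activity change, negative = inhibition: 0% = wells with enzyme and -100% = buffer wells without enzyme.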

Sequence of UniProt B2RXH2 (B2RXH2 whole entry, looked up, the tested form may be a part): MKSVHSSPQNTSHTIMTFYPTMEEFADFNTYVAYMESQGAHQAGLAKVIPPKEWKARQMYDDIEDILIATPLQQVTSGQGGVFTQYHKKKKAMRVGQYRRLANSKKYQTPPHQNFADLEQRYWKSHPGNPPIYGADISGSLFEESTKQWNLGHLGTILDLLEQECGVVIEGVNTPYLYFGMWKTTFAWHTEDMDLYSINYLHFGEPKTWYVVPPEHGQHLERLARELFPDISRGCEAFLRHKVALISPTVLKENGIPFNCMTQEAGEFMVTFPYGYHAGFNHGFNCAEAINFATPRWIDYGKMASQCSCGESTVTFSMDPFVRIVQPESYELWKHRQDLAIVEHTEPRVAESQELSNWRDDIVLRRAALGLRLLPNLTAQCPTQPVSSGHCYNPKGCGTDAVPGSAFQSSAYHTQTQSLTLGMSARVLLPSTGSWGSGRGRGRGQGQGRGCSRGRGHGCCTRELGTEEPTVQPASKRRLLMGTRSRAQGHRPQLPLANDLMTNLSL

Compound	Potency	activity change, negative = inhibition
CCS(=O)(=O)N1N=C(c2cccs2)CC1c1cc2cc(C)ccc2nc1Cl (stereo unspecified)	inconclusive: 39.8 µM [inhibitor, single point]	–
CCCCNC(=O)NC1(C(F)(F)F)Oc2ccccc2O1	–	inactive: -14.3%
Cc1ccc(CNc2oc(-c3ccco3)nc2C#N)cc1	inconclusive: 31.6 µM [inhibitor, partial curve]	–
O=C(Nc1nc2ccc(Cl)cc2s1)[C@@H]1CCCN1C(=O)c1cccs1	–	inactive: -6.95%
CC(=O)c1cccc(NC=C2C(=O)OC3(CCCCC3)OC2=O)c1	–	inactive: -14.9%
Oc1c(C(c2ccccn2)N2CCC(Cc3ccccc3)CC2)cc(Cl)c2cccnc12 (stereo unspecified)	inconclusive: 39.8 µM [inhibitor, single point]	–
CC(C)Cn1c(SCC(=O)N2CCCCC2)nc2ccccc2c1=O	–	inactive: -0.327%
CCOC(=O)c1nsnc1NCCSC(=N)N	inconclusive: 31.6 µM [inhibitor, partial curve]	–
C=CCn1c(C)cc(C(=O)COC(=O)/C=C/c2ccc(OC)cc2)c1C	inconclusive: 39.8 µM [inhibitor, single point]	–
O=C(CCCCCN1C(=O)c2ccccc2C1=O)NCc1ccccn1	inconclusive: 39.8 µM [inhibitor, single point]	–
Cc1cccc(Nc2ccc(C(=O)N3CCOCC3)cn2)c1	inconclusive: 39.8 µM [inhibitor, single point]	–
COC(=O)C(C)(N)Cc1ccc(O)cc1 (stereo unspecified)	inconclusive: 28.2 µM [inhibitor, single point]	–
N#CC(C(=O)Nc1cccc(Cl)c1)=C1Nc2ccccc2N1	inconclusive: 39.8 µM [inhibitor, single point]	–
CCOc1cccc(/C=N/N2C(=O)CSC2=S)c1O	active: 31.6 µM	–
CC(=O)c1sc2nc(C)c3c(c2c1N)CCCC3	inconclusive: 25.1 µM [inhibitor, partial curve]	–
COCCNCCOCCOc1ccc(Cl)c(C)c1	inconclusive: 35.5 µM [inhibitor, single point]	–
O=C(NC(=S)NCCc1ccccn1)c1ccco1	–	inactive: -0.459%
O=C(O)c1ccccc1OC(=O)C12CC3CC(CC(C3)C1)C2	inconclusive: 31.6 µM [inhibitor, partial curve]	–
Cn1cnc([N+](=O)[O-])c1Sc1ncccc1N	–	inactive: 1.58%
CC(=O)Nc1ccc(NC(=O)C(C)OC(=O)/C=C/c2cn(-c3ccccc3)nc2-c2cccnc2)cc1 (stereo unspecified)	inconclusive: 25.1 µM [inhibitor, partial curve]	–
COc1cccc(OC)c1-c1nnc(-c2cn(C)c3ccccc23)o1	inconclusive: 3.98 µM [inhibitor, full curve]	–
